In the RNAGym collection of RNA variant scans (doi:10.7554/elife.90254):
The source gives no read counts; variants with many changes may rest on few reads.

B1: LINE1-mini (parent)
chain: GGCAGAGCUCAACACAGCGUGGCAAAGUGGCUGUGGCUAGACUGCC

Variants of: B1
Experiment: self-cleavage, relative activity (ratio to wild type); higher = more cleavage; in vitro, sequencing; the parent is a self-cleaving ribozyme

Row | Variant | self-cleavage
1 | C13A A14U G21C G35C A39U | 0.02
2 | A4G G5U C23G G33U | 0.05
3 | A24U A25U G29C G40A A41G | 0.11
4 | C3U U34G G44A | 0.13
5 | G1U G17U G22A G27A G33U C46U | 0.08
6 | G1A G17U G19U C45U | 0.07
7 | U9G C10G A25U | 0
8 | A12G C15U G17A A24G A25C G44A | 0.06
9 | G5U A11G G40C | 0.03
10 | C3U A4G G22U C45U | 0.07
11 | U9A C13G G19A A26C A39U C46A | 0.15
12 | U32G G35C C37A | 0.04
13 | A4G A12C G30A | 0.01
14 | C8A A16U G36A | 0.04
15 | C3A C10A C18A C23G G35C | 0.03
16 | G29U U32A G40A | 0.31
17 | A12C G22C A41C | 0.01
18 | G5C U20G C37U | 0.02
19 | G1U A11C C23U A25G | 0.03
20 | C8G A11C G19U G21U C37G C45G | 0
21 | G1U G7U C8G A39G | 0.19
22 | A6U C10U G27C | 0.04
23 | G7A C8U A16G G30A G33A | 0.14
24 | G21U G33U G35C | 0.08

Row | Variant | self-cleavage
25 | G7A G30U U38G | 0.01
26 | G2A C23A G44C | 0.71
27 | A12G G17A G22U U28C G29A C46U | 0.06
28 | C18G U20C A24U A41U | 0.07
29 | A14U G19A G29U | 1.46
30 | C3A A6C U28A C46U | 0.19
31 | G2U A26G U34G | 0.02
32 | A14C A25G C31U G35A | 0
33 | G21U A25C U28G G30U G36U | 0.04
34 | G2U G5A U34A | 0.02
35 | C3G A12G G30C | 0.08
36 | G5C A14G C31U | 0.03
37 | G17U C23A G36C | 0.01
38 | G2U G5U G29U G30A | 0.04
39 | G2A A11U G22U C23U A39G C42A | 0.04
40 | G2A A25C C37G | 0.13
41 | C3U A4C C13A U34A C37A A39G | 0.22
42 | A16G C18U G33C C37A U38G | 0.03
43 | U9G C10U G19C G29U | 0.02
44 | G21U C23G G40U | 0.27
45 | U28C C31U C37U G44A | 0.05
46 | U20A C31A C45A | 0.06
47 | U38C U43C G44U | 0.03
48 | U9G C31U U32A | 0.03

Row | Variant | self-cleavage
49 | C8G G19A G29U | 0.17
50 | U32G G33C G35C | 0.06
51 | U28C G29U C31G C42A | 0.01
52 | C18U A24G C31U C46A | 0.05
53 | A16U G21U C23U | 0.17
54 | C10A U32G C45U | 0.01
55 | U28G C37G U43C | 0.09
56 | C3U C10U A16U A24U C37A | 0.07
57 | A4G G7C G21U C23A | 0.05
58 | C23G G27A G40A | 0.07
59 | C13A C15G C18A U20A A24U A25G | 0.01
60 | G5A A6C G7C A16C A39U | 0.02
61 | C8A C13U C15U G21C C37G U43A | 0.22
62 | G27A A39G C42G C45A | 0.02
63 | G2A A26U G27U G29A | 0.17
64 | G2A C10A G17C A41C | 0
65 | G2C C10A U34C | 0.01
66 | A4U A25C G36A | 0.07
67 | G2A U9A C15U G27U G33U | 0.17
68 | G21C U32A G35U | 0.07
69 | G17U U28C U43A G44U | 0.04
70 | A4U C13A C18A U38C | 0.02
71 | G5A C18U C37G U43A | 0.02
72 | G7A A11C U28C G30C | 0

Row | Variant | self-cleavage
73 | A4U C10U G27A A39G C45U | 0.08
74 | A11G C31U A41U | 0.02
75 | G5A A16U G19U G21A C31G G36C | 0.01
76 | G7U A11G A24U C37A | 0.01
77 | G29U G36C C37A | 0.14
78 | C3U A16G G21U A41U | 0.61
79 | C3U G5U A24G | 0.57
80 | A4G A14G G17U C37G C42A | 0.03
81 | C15A C37A G40C | 0.05
82 | C8U G29U G30U A39U | 0.15
83 | A4G C13U G19C | 0.16
84 | C10G G21U A25G G33A C42U | 0.01
85 | C3U A11C U20A G33U G36C G44U | 0
86 | C10A C13A A24U | 0.04
87 | G27A U28A A41U | 0.58
88 | C10U C18U G29A | 0.61
89 | G19U C23G G44C C45A | 0.01
90 | G2A C23A U34A | 0.19
91 | G2C C8A C45A | 0.14
92 | G7C U28A G35A G36U | 0.01
93 | A4C A16U C18A U43C | 0.01
94 | G36C G44U C45G | 0.04
95 | A12C A16G C45U C46U | 0.01
96 | C15A G27A U43C | 0.03

Row | Variant | self-cleavage
97 | C3A C23G C42U | 0.12
98 | A14U G21A A41U | 0.15
99 | G27A G30U G35U U38A | 0.04
100 | C10U A24C C37A | 0.02
101 | A11C A12U C13U G22C U38A C42G | 0
102 | C15U G17A G30U C37U C42G | 0.06
103 | G7U C10U C13U C18U G22A C31U C37G | 0.09
104 | U20G G21C U34C | 0.2
105 | A6U C13G C37U C45G | 0.05
106 | A4C A11U A26U | 0.05
107 | G1C G5C C45A | 0.01
108 | C8U A24U G40U | 0.12
109 | A16U U28C C45A | 0.08
110 | A4G C8G C45A | 0.03
111 | A16U G40U U43A | 0.3
112 | U28C G36U A39G | 0
113 | G7U A24G C37U C46G | 0.06
114 | C13G C15A C23A G33U | 0.03
115 | G2A A4C C8U A11U A24U | 0.03
116 | G1U G2A C10U G36C | 0.02
117 | A4C C10A G30A A41G C42A | 0.01
118 | A11G A16U C37G A39C A41U | 0
119 | C18U G22A C46U | 0.28
120 | G5U G22A U34C | 0.18

Row | Variant | self-cleavage
121 | C3U A26G U28C G36U C42A | 0.05
122 | A14U C15G G29A G40U | 0.01
123 | C13U C15A A25U C31U G33A | 0.03
124 | C10G A12G C31U | 0.03
125 | U9A C31A G44A | 0.02
126 | A4G A26C C37U | 0.02
127 | C15A C45U C46G | 0.04
128 | G1U C3U C37A | 0.14
129 | A11U A25U G40U | 0
130 | A14G G29A C45A | 0.04
131 | G1C G21U G33C | 0.01
132 | A4G C13U U20A C23A | 0.08
133 | G27U G35A G36C | 0.2
134 | A4C G27A G30U U32G | 0.25
135 | G2C G7U C13U G19C G27A G36A | 0.04
136 | C15U U20G U32C | 0.06
137 | G7C C8G G33A | 0.09
138 | G5U U38A A39C | 0.07
139 | A4G U34A C45U C46U | 0.1
140 | G2U G19C G22A G29U | 0.05
141 | U20G C31A G35A C45G C46U | 0.03
142 | G5C C18G U20A A26U G40A C45U | 0.24
143 | C3U G7C A11U A14C | 0.07
144 | G7C G22U G27A C42A | 0.13

Row | Variant | self-cleavage
145 | G7U C8A U9A C31G C37U | 0.04
146 | A6U A16U C31A A41U | 0.02
147 | G7C G33U G40A | 0.03
148 | A6C U20A G27U | 0.39
149 | G5U A14C A25U | 0.07
150 | G19U C23G C42G | 0.04
151 | U34G G40U A41G | 0.04
152 | A25U G27A G33C C46A | 0.03
153 | U9A A24U A25U G35C G36C | 0.02
154 | G7A C10A U32C U34C G35U | 0.01
155 | A11U C13A G17U G40U C45A | 0.04
156 | G2C C10G G35C | 0.01
157 | G1C U9A C13U G30C | 0
158 | G2U C23G G29A | 0.1
159 | U9G G29C G30A U32A | 0.01
160 | G7U G21U U34C | 0.08
161 | C18U U20C C31A C45A | 0.03
162 | G1C C18G G30U | 0.03
163 | A14G U32G G36A A39G U43C | 0.01
164 | A4U G7A U9C A12U U20C A39C C46U | 0.02
165 | G2U C3A A16C G35U | 0.04
166 | G1C A11U C46G | 0.09
167 | C13U U34G C42U | 0.01
